Results taken from PubChem BioAssay AID686978 (National Center for Advancing Translational Sciences (NCATS), 2013).
Several values for one entry are separate records, joined by “and”; a condition that tells them apart may be missing. Identical values can stand only once. Screen size: about 420,000 compounds; about 64,000 (15%) were called active. The inconclusive results got no clear call from the source; some entries with a clear call stand among them for comparison. Calls follow the shape of the dose curve; as a rule, active = well fitted inhibition curve with a large enough effect; inconclusive = small, poorly fitted or top-dose-only effect; inactive = flat fitted curve, though single readings scatter. Potencies of inconclusive entries are doubtful fits and often do not repeat.
% is scaled to controls: 0 for no effect and ±100 for the full control effect; potency is read from the fitted curve at half-maximal effect; tags tell the direction and shape of the fitted curve.

Assay: qHTS for Inhibitors of human tyrosyl-DNA phosphodiesterase 1 (TDP1): qHTS in cells in absence of CPT; also: nearly all actives have a fitted effect of over 55% in size
Settings: DT40 Tdp1-/- hTDP1 cells, no CPT, ATP luminescence, 48 h; activity change, negative = growth inhibition: at 46.2 µM (top of the series) unless noted
How it was run: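 Readout: luminescence from CellTiter-Glo after 30 min in the dark at RT. Cells: DT40 Tdp1-/- with stable hTDP1, 400/well. Exposure: compounds alone, ≥48 hr, 37 °C.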
With COc1ccc(/C=C/c2nc(C#N)c(N3CCC(C)CC3)o2)cc1OC the Potency was active: 23.1 µM.
For COc1cc([C@@H]2c3cc4c(cc3[C@@H](O[C@@H]3O[C@@H]5CO[C@@H](C)O[C@H]5[C@H](O)[C@H]3O)[C@H]3COC(=O)[C@H]23)OCO4)cc(OC)c1O, the Potency was active: 473 nM and active: 164 nM.
With Cc1nc(C(=O)O)cc2c1[nH]c1ccccc12 the Potency was inconclusive: 20.6 µM [inhibitor, single point].
In the case of COc1ccc(N2C(=O)c3ccccc3NC(=O)C2C(=O)Nc2ccc3c(c2)OCCO3)cc1 (configuration not stated), the “activity change, negative = growth inhibition” value is reported as inactive: -19.2%.
For O=C1CS/C(=C\[N+](=O)[O-])N1c1ccccc1, the Potency was inconclusive: 8.2 µM [inhibitor, partial curve].
With COc1ccccc1CNC(=O)C(=O)c1cn(CC(=O)N2CCCC2)c2ccccc12 the “activity change, negative = growth inhibition” value was inactive: -21.3%.
With Cn1c(=O)c2c(nc(N3CCNCC3)n2Cc2cccc3ccccc23)n(C)c1=O the Potency was inconclusive: 14.1 µM [inhibitor, partial curve].
In the case of COc1ccc2c(c1)c(C(=O)N/N=C/c1cn(C)c3ccccc13)c(C)n2C, the Potency is reported as inconclusive: 29.1 µM [inhibitor, single point].
With CC(Sc1n[nH]c(N)n1)C(=O)Nc1ccc(Cl)cn1 (configuration not stated) the “activity change, negative = growth inhibition” value was inactive: 1.62%.
With COCCn1c(SCC(=O)Nc2ccc(OC)c(S(N)(=O)=O)c2)nc2ccccc21 the Potency was inconclusive: 23.1 µM [inhibitor, single point].
For CCCNC(=O)N(C)C[C@@H]1Oc2cc(C#CC(C)(C)O)ccc2S(=O)(=O)N([C@H](C)CO)C[C@H]1C, the “activity change, negative = growth inhibition” value was inactive: 23.7%.
In the case of Cc1cc(C)c(SSc2nnnn2-c2ccccc2)c(C)c1, the Potency is reported as inconclusive: 29.1 µM [inhibitor, single point].
In the case of CC(C)=CCOc1ccc2c(C)c(CC(=O)N3C[C@H]4C[C@@H](C3)c3cccc(=O)n3C4)c(=O)oc2c1C, the Potency is reported as inconclusive: 20.6 µM [inhibitor, single point].
In the case of c1ccc(CSc2ccc(-c3ccccn3)nn2)nc1, the Potency is reported as inconclusive: 29.1 µM [inhibitor, single point].
With CSc1ccc(CCNC(=O)c2ccc(-n3c(C)cc4c3CCCC4)cc2)cc1 the Potency was active: 18.4 µM.
In the case of CC1CCCCN1S(=O)(=O)c1ccc(C(=O)Nc2nnc(C3CC3)o2)cc1 (configuration not stated), the Potency is reported as inconclusive: 29.1 µM [inhibitor, single point].
In the case of COc1ccc(CN(C2CC2)S(=O)(=O)c2ccccc2Br)cc1, the Potency is reported as inconclusive: 23.1 µM [inhibitor, single point].
With CCCCCCN1CC(=O)N2Cc3[nH]c4ccccc4c3C[C@H]2C1=O the activity change, negative = growth inhibition was inconclusive: -31.2% [inhibitor].
For CCOC(=O)C1=CCN(S(=O)(=O)c2ccc(C)cc2)C1c1ccccc1F (configuration not stated), the Potency was inconclusive: 23.1 µM [inhibitor, single point].
For Cc1cc(C(=O)NNC(=O)CCN2CCN(c3ccccc3)CC2)c2ccccc2n1, the Potency was inconclusive: 29.1 µM [inhibitor, single point].
With COc1ccc(NC(=O)Nc2c(C)noc2-c2ccccc2)cc1 the Potency was inconclusive: 13 µM [inhibitor, partial curve, poor fit].
In the case of CC(=O)N1N=C(c2ccc(C)cc2)CC1c1cn(-c2ccccc2)nc1-c1cccs1 (configuration not stated), the Potency is reported as inconclusive: 23.1 µM [inhibitor, single point].
For CCOc1ccc(CC(=O)NNC(=S)NC)cc1, the Potency was inconclusive: 29.1 µM [inhibitor, single point].
In the case of CCCNc1nc(N2CCCC2)nc(N2CCCC2)n1, the Potency is reported as active: 13 µM.
With CCCS(=O)(=O)N1CCN(Cc2c[nH]c3ccccc23)CC1 the Potency was inconclusive: 2.91 µM [inhibitor, partial curve, poor fit].
For O=C(Nc1cccc(Cl)c1)C1CCCN(C2=NS(=O)(=O)c3ccccc32)C1 (configuration not stated), the Potency was inconclusive: 29.1 µM [inhibitor, single point].
In the case of O=[N+]([O-])c1ccc(/C=N/N=C/c2ccc([N+](=O)[O-])o2)o1, the Potency is reported as active: 0.731 µM.
In the case of Cc1cc(C)c(C)c(OCCNCc2ccccc2)c1, the Potency is reported as inconclusive: 23.1 µM [inhibitor, single point].
In the case of CC(CCc1ccccc1)NCC(O)COc1ccccc1 (configuration not stated), the Potency is reported as inconclusive: 16.4 µM [inhibitor, single point].
For Cc1ccc(NC(/C=C/N(C)C)=C/C(=O)C(F)(F)F)c(C)c1, the Potency was active: 16.4 µM.
For Cc1ccc(C(=O)N(C)c2ccc(OCC(=O)N3c4ccc(C)cc4C4CN(C)CCC43)cc2)cc1 (configuration not stated), the Potency was inconclusive: 11.6 µM [inhibitor, partial curve].
With COc1ccccc1CNC(=O)CS(=O)Cc1nc(-c2ccc(OC)c(OC)c2)oc1C (configuration not stated) the Potency was inconclusive: 18.4 µM [inhibitor, partial curve] and inconclusive: 29.1 µM [inhibitor, single point].
For COc1ccc(-c2csc(C(O)c3cccc(Cl)c3)n2)cn1 (configuration not stated), the Potency was active: 20.6 µM.
With CCOC(=O)c1c(C)sc2c1N(C(=O)CN(CC)CC)c1cc(Cl)ccc1S2 the Potency was inconclusive: 29.1 µM [inhibitor, single point].
For Cc1cccc(C)c1NC(=O)C(c1ccccc1)N1CCN(C(=O)c2ccco2)CC1 (configuration not stated), the “activity change, negative = growth inhibition” value was inactive: -3.36%.
With COc1cc2ccnc(Cc3cccc(OC)c3OC)c2cc1OC the Potency was active: 13 µM.
For CN1CCN(NC(=O)c2cc([N+](=O)[O-])cc([N+](=O)[O-])c2)CC1, the “activity change, negative = growth inhibition” value was inactive: -14.5%.
With CCC(CC)c1nnc(NC(=O)c2ccco2)s1 the “activity change, negative = growth inhibition” value was inactive: -6.42%.
In the case of COc1ccccc1NS(=O)(=O)c1cc(NC(=O)COc2ccccc2)ccc1N1CCOCC1, the Potency is reported as inconclusive: 18.4 µM [inhibitor, single point].
For COc1ccccc1N1C(=O)CC(Sc2ncccc2C(=O)O)C1=O (configuration not stated), the “activity change, negative = growth inhibition” value was inactive: 8.06%.
In the case of COc1ccc(C(=O)NC2CC(C)(C)Cc3c2cnn3-c2ccccc2C)c(OC)c1OC (configuration not stated), the Potency is reported as active: 16.4 µM.
In the case of CCOC(=O)c1ccc(NC(=O)C2CCN(S(=O)(=O)c3ccc(C)cc3)CC2)cc1, the Potency is reported as inconclusive: 3.66 µM [inhibitor, single point].
In the case of O=C1NC(=Nc2ccccc2)c2ccc([N+](=O)[O-])cc21, the Potency is reported as inconclusive: 32.6 µM [inhibitor, partial curve, poor fit].
In the case of C=CCn1c(CCc2ccc(OC(C)C)cc2)n[nH]c1=S, the Potency is reported as inconclusive: 29.1 µM [inhibitor, single point].
For Cc1ccc(NC(=S)NNc2ncc(C(F)(F)F)cc2Cl)cc1, the Potency was inconclusive: 29.1 µM [inhibitor, single point].
For CCCN(CCC)S(=O)(=O)c1cc(CN2C(=O)c3cccnc3C2=O)ccc1OC, the “activity change, negative = growth inhibition” value was inactive: 13.9%.
For CCN(Cc1ccccc1)C(=O)C1CCN(S(=O)(=O)c2c(C)noc2/C=C/c2ccc(C)cc2)CC1, the Potency was inconclusive: 25.9 µM [inhibitor, single point].
For COc1ccc(Nc2cc(C)c3cc(NC(=O)Cc4c(F)cccc4Cl)ccc3n2)cc1, the Potency was active: 13 µM.
In the case of CCOC(=O)C1=C(COC(=O)/C=C/c2cc(OC)c(OC)c(OC)c2)NC(=O)NC1C (configuration not stated), the Potency is reported as inconclusive: 25.9 µM [inhibitor, single point].
In the case of Cc1ccc(CCNC(=O)c2ccc(CSCc3ccccc3C)o2)cc1, the Potency is reported as active: 16.4 µM.
With Cc1cc(F)cc(-c2cc(C(=O)NCC3CCCCC3)[nH]n2)c1 the Potency was inconclusive: 16.4 µM [inhibitor, single point].
In the case of CCOC(=O)C1=C(c2ccccc2)Nc2ncnn2C1c1ccc(C(=O)O)cc1 (configuration not stated), the “activity change, negative = growth inhibition” value is reported as inactive: -7.04%.
For CCOc1ccc(CNS(=O)(=O)c2ccc(-c3cc(C(F)(F)F)on3)s2)cc1, the “activity change, negative = growth inhibition” value was inactive: -30%.
With CCOc1ccc(-c2nnc(NC(=O)c3ccc(OCC(C)C)c(OC)c3)o2)cc1 the Potency was active: 6.51 µM.
With Cc1ccccc1C(=NC(=O)c1ccccc1)c1ccccc1 the Potency was inconclusive: 2.31 µM [inhibitor, full curve].
For CN(C)C(=S)N=c1ssc(=S)n1Cc1cccnc1, the Potency was active: 2.59 µM.
For O=C(c1ccc(Br)o1)N1CCN(CCc2ccncc2)CC1, the “activity change, negative = growth inhibition” value was inactive: -22.1%.
With O=Nc1c(O)n(Cc2ccc(Cl)c(Cl)c2)c2ccccc12 the Potency was inconclusive: 18.4 µM [inhibitor, single point].
With COc1ccc(CCNC(=O)c2ccccc2OCc2c(C)noc2C)cc1 the activity change, negative = growth inhibition was inconclusive: -30.8% [inhibitor].
For COc1ccc(CCNC(=O)c2c(C)nn(-c3ccccc3)c2Cl)cc1, the Potency was inconclusive: 29.1 µM [inhibitor, single point].
For Cc1ccccc1NC(=O)C1Cc2ccccc2CN1C(=O)OCc1ccccc1 (configuration not stated), the Potency was active: 20.6 µM.
For COc1ccccc1CNC(=O)c1sc2nc3n(c(=O)c2c1C)CCC3, the “activity change, negative = growth inhibition” value was inactive: -26.4%.
With COc1ccc(N/C=C(\C=C\C#N)S(=O)(=O)c2ccccc2)cc1 the “activity change, negative = growth inhibition” value was inactive: 6.33%.
For CCOC(=O)C1CCN(CC(=O)c2ccc(O)c(C)c2O)CC1, the Potency was inconclusive: 20.6 µM [inhibitor, partial curve].
In the case of Cc1nc2c(Cl)cccc2c2c1CC(CBr)O2 (configuration not stated), the Potency is reported as inconclusive: 16.4 µM [inhibitor, single point].
In the case of COC(=O)c1cnn2c(C(F)(F)F)cc(-c3ccco3)nc12, the “activity change, negative = growth inhibition” value is reported as inactive: -7.72%.
With Cc1sc(NC(=S)NC(=O)c2ccco2)c(C(N)=O)c1C the “activity change, negative = growth inhibition” value was inactive: 0.174%.
In the case of Cc1ccc(-c2cc3nc(-c4ccccc4)cc(N4CCC5(CC4)OCCO5)n3n2)cc1, the Potency is reported as active: 18.4 µM.
For CCOC(=O)C(=O)c1c(-c2ccccc2)nc2ccccn12, the Potency was inconclusive: 1.64 µM [inhibitor, full curve, poor fit].
With CN(Cc1ccccc1)C(=O)COC(=O)CCN1C(=O)C2CC=CCC2C1=O (configuration not stated) the “activity change, negative = growth inhibition” value was inactive: 14.3%.
With Cc1ccc(NC(=O)CNC(=O)OCc2ccccc2)cc1C the “activity change, negative = growth inhibition” value was inactive: -29%.
With CC1(C)Cc2ccccc2-c2nnc(SCC(=O)N3CCc4ccccc43)n21 the Potency was inconclusive: 23.1 µM [inhibitor, single point].
